{
  "source": "the supplement of paper PMC3724861",
  "note": "Some of the results follow.",
  "data": [
    {"tested_on": "T1, Caupolican (Caup) homeodomain DNA-binding domain", "T1 sequence": "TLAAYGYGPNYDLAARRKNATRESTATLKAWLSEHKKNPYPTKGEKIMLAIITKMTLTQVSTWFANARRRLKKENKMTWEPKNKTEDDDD", "test": "PBM E-score (8-mer, recovered from the published 9-mer minima) (E-score (dimensionless, -0.5 to 0.5)); Drosophila protein; higher = stronger relative binding preference, active = 0.31 or more", "outline": "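Caup's homeodomain DNA-binding domain (residues 214-303) was made by in vitro transcription and translation and applied at 100 nM to custom-designed protein binding microarrays. Each value is an enrichment score that gives relative binding preference for a short DNA word, with higher meaning stronger. The 8-mer values were recovered from published 9-mer scores, each of which was the minimum of its two constituent 8-mer scores. A cutoff of 0.31 marks candidate sites.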", "values": [
      {"sequence": "CAACCCTC", "PBM E-score": "inactive: -0.0608"},
      {"sequence": "ATTGCTGC", "PBM E-score": "inactive: -0.0356"},
      {"sequence": "CAGGGCCG", "PBM E-score": "inactive: -0.204"},
      {"sequence": "AGTATAAC", "PBM E-score": "inactive: 0.091"},
      {"sequence": "CGGAGTCA", "PBM E-score": "inactive: -0.0798"},
      {"sequence": "TCGTTCAA", "PBM E-score": "inactive: 0.0359"},
      {"sequence": "GAATCCCA", "PBM E-score": "inactive: 0.0261"},
      {"sequence": "CCTGGCAC", "PBM E-score": "inactive: -0.115"},
      {"sequence": "AATTAGTG", "PBM E-score": "inactive: 0.202"},
      {"sequence": "CTATTAAA", "PBM E-score": "inactive: 0.0453"},
      {"sequence": "CAGGTCTC", "PBM E-score": "inactive: -0.15"},
      {"sequence": "TATCCCGA", "PBM E-score": "inactive: 0.0808"},
      {"sequence": "AGGTTTAG", "PBM E-score": "inactive: 0.00358"},
      {"sequence": "AACAATTC", "PBM E-score": "inactive: 0.19"},
      {"sequence": "ATTGTCCA", "PBM E-score": "inactive: 0.1"},
      {"sequence": "ATCTTAAC", "PBM E-score": "inactive: 0.176"},
      {"sequence": "CAAAAAGC", "PBM E-score": "inactive: -0.0694"},
      {"sequence": "CGCGCGGC", "PBM E-score": "inactive: -0.232"},
      {"sequence": "ACTCGTCC", "PBM E-score": "inactive: -0.0489"},
      {"sequence": "GAGCACAA", "PBM E-score": "inactive: 0.039"},
      {"sequence": "CAAATTTA", "PBM E-score": "inactive: 0.105"},
      {"sequence": "CATGCGAC", "PBM E-score": "inactive: 0.0863"},
      {"sequence": "AATTGGAG", "PBM E-score": "inactive: 0.00807"},
      {"sequence": "GCAAGCAA", "PBM E-score": "inactive: -0.0127"},
      {"sequence": "CCGCCGCC", "PBM E-score": "inactive: -0.259"},
      {"sequence": "GAAAAGCA", "PBM E-score": "inactive: -0.0579"},
      {"sequence": "CACCAGAC", "PBM E-score": "inactive: -0.05"},
      {"sequence": "GATCGTGC", "PBM E-score": "inactive: -0.00242"},
      {"sequence": "CTTCGAAG", "PBM E-score": "inactive: -0.132"},
      {"sequence": "ATGCTTAC", "PBM E-score": "inactive: 0.043"},
      {"sequence": "GCACTGGC", "PBM E-score": "inactive: -0.127"},
      {"sequence": "AACGGTAG", "PBM E-score": "inactive: -0.0755"},
      {"sequence": "GGTTTTAC", "PBM E-score": "inactive: 0.0559"},
      {"sequence": "CCTTCCGA", "PBM E-score": "inactive: -0.162"},
      {"sequence": "CCCGCGCA", "PBM E-score": "inactive: -0.182"},
      {"sequence": "TGACGACA", "PBM E-score": "inactive: 0.24"},
      {"sequence": "TACAGACA", "PBM E-score": "inactive: 0.288"},
      {"sequence": "TACATTCA", "PBM E-score": "inactive: 0.232"},
      {"sequence": "CCACCGCA", "PBM E-score": "inactive: -0.145"},
      {"sequence": "GCAGCATA", "PBM E-score": "inactive: 0.0377"},
      {"sequence": "AGTTTCAT", "PBM E-score": "inactive: 0.0389"},
      {"sequence": "ACGCAAAA", "PBM E-score": "inactive: 0.0611"},
      {"sequence": "CCCCTACA", "PBM E-score": "inactive: 0.0519"},
      {"sequence": "AACAAAGC", "PBM E-score": "inactive: 0.0791"},
      {"sequence": "CGCCTCGA", "PBM E-score": "inactive: -0.165"},
      {"sequence": "ATCCTCAG", "PBM E-score": "≥ 0.0194"},
      {"sequence": "CCCCGGCC", "PBM E-score": "inactive: -0.278"},
      {"sequence": "CATAACCG", "PBM E-score": "inactive: 0.0434"},
      {"sequence": "AAGGAAGT", "PBM E-score": "inactive: -0.00485"},
      {"sequence": "ATCTTGTG", "PBM E-score": "inactive: 0.18"},
      {"sequence": "CCTCTATC", "PBM E-score": "inactive: -0.0252"},
      {"sequence": "AAGCGGTA", "PBM E-score": "inactive: 0.021"},
      {"sequence": "ACGCGAGG", "PBM E-score": "inactive: -0.0393"},
      {"sequence": "AAGATAAA", "PBM E-score": "inactive: 0.145"},
      {"sequence": "AGTGTCAT", "PBM E-score": "inactive: 0.246"},
      {"sequence": "TCTCCCAA", "PBM E-score": "inactive: -0.111"},
      {"sequence": "ATGTTTAG", "PBM E-score": "inactive: 0.284"},
      {"sequence": "AGGATTTA", "PBM E-score": "inactive: 0.0456"},
      {"sequence": "CAGCGTGA", "PBM E-score": "inactive: -0.0005"},
      {"sequence": "AGGACCGA", "PBM E-score": "inactive: -0.117"},
      {"sequence": "GCTTCACC", "PBM E-score": "inactive: -0.177"},
      {"sequence": "CTCATCAG", "PBM E-score": "inactive: 0.0649"},
      {"sequence": "ACATTCCC", "PBM E-score": "inactive: 0.112"},
      {"sequence": "GACGAAAC", "PBM E-score": "inactive: -0.026"},
      {"sequence": "TATTCAAA", "PBM E-score": "inactive: 0.134"},
      {"sequence": "ATACCCAC", "PBM E-score": "inactive: 0.00559"},
      {"sequence": "ATTCGACG", "PBM E-score": "inactive: -0.023"},
      {"sequence": "AGTGTGGA", "PBM E-score": "inactive: 0.0098"},
      {"sequence": "GGTGCGCA", "PBM E-score": "inactive: -0.176"},
      {"sequence": "ACTATGGC", "PBM E-score": "inactive: 0.0196"},
      {"sequence": "AGGTTTGC", "PBM E-score": "inactive: -0.0341"},
      {"sequence": "AGTCGACT", "PBM E-score": "≥ 0.0996"},
      {"sequence": "ACTTGGAG", "PBM E-score": "inactive: 0.0132"},
      {"sequence": "GCGCGCGA", "PBM E-score": "inactive: -0.113"},
      {"sequence": "ACAGATGT", "PBM E-score": "≥ 0.253"}
    ]}
  ]
}
